Patent US8648074B2, “Substituted octahydropyrrolo[1,2-a]pyrazine sulfonamides as calcium channel blockers” (AbbVie Inc., priority 2011, dated 2014)

Biological target: human Cav2.2 (Homo sapiens, UniProt Q00975)
Assay: In vitro assessment of calcium channel activity using FLIPR (Ca2+ influx in IMR32 cells)
Format: cell-based
Conditions: IMR32 cells endogenously expressing human Cav2.2; Calcium 4 dye, 60 minute pre-incubation, 2 μM nifedipine, depolarized with 80 mM KCl; average of at least two runs unless marked *
Description: The IMR32 cells were maintained in MEM media containing 10% (v/v) FBS, 1% (v/v) antibiotic/antimitotic, 1% (v/v) sodium pyruvate and 1% (v/v) MEM NEAA. Following dissociation in 0.05% (v/v) trypsin/EDTA, cells were seeded into black 1×96-well plates (Corning Cellbind) at a density of 1−1.2×10^5 cells/well and incubated in the maintenance media above for 48 hours at 37° C. Immediately prior to performing the assay the media was removed and cells were loaded for 1.5 hours with 1× Calcium 4 dye prepared in HBSS (137 mM NaCl, 5.4 mM KCl, 0.25 mM Na2HPO4, 0.44 mM KH2PO4, 1.3 mM CaCl2, 1 mM MgSO4, 4.2 mM NaHCO3) containing HEPES pH 7.4 at room temperature. After dye loading and a subsequent 60 minute pre-incubation with compounds (full log dilutions from 10 μM to 0.1 nM) in the presence of 1.3 mM CaCl2 and 2 μM nifedipine to block endogenous L-type channels, the external Ca^2+ concentration was increased to 5 mM CaCl2 and the cells concomitantly depolarized with 80 mM KCl to assay channel activity. To determine the IC50 values, the percent inhibition of the compound at each concentration was determined relative to the activity in the absence of inhibitor, and data was fitted using non-linear regression sigmoidal dose response curve analysis with GraphPad Prism®. Unless otherwise indicated (*), the reported values are average values from at least two runs (i.e., n≧2).

SMILES | IC50 [µM]
O=S(=O)(c1ccc(F)cc1F)N1CCN2C[C@H](Oc3cnc(C4CC4)cn3)C[C@H]2C1 [Example 62, (7R,8aS)-7-[(5-cyclopropylpyrazin-2-yl)oxy]-2-[(2,4-difluorophenyl)-sulfonyl]octahydropyrrolo[1,2-a]pyrazine] | 1.38
O=S(=O)(c1cc(C(F)(F)F)ccn1)N1CCN2C[C@H](Oc3cnc(C4CC4)cn3)C[C@H]2C1 [Example 63, (7R,8aS)-7-[(5-cyclopropylpyrazin-2-yl)oxy]-2-{[4-(trifluoromethyl)pyridin-2-yl]sulfonyl}octahydropyrrolo[1,2-a]pyrazine] | 1.38
N#Cc1ccc(S(=O)(=O)N2CCN3C[C@H](Oc4cnc(C5CC5)cn4)C[C@H]3C2)cc1C(F)(F)F [Example 65, 4-{[(7R,8aS)-7-[(5-cyclopropylpyrazin-2-yl)oxy]hexahydropyrrolo[1,2-a]-pyrazin-2(1H)-yl]sulfonyl}-2-(trifluoromethyl)benzonitrile] | 1.65
O=S(=O)(c1ccc(C(F)(F)F)cn1)N1CCN2C[C@H](Oc3cnc(C4CC4)cn3)C[C@H]2C1 [Example 67, (7R,8aS)-7-[(5-cyclopropylpyrazin-2-yl)oxy]-2-{[5-(trifluoromethyl)pyridin-2-yl]sulfonyl}octahydropyrrolo[1,2-a]pyrazine] | 1.8
O=S(=O)(c1ccc(N2CCOCC2)nc1)N1CCN2C[C@H](Oc3cnc(C4CC4)cn3)C[C@H]2C1 [Example 70, (7R,8aS)-7-[(5-cyclopropylpyrazin-2-yl)oxy]-2-{[6-(morpholin-4-yl)pyridin-3-yl]sulfonyl}octahydropyrrolo[1,2-a]pyrazine] | 6.97
COc1ccc(C(C)(C)C)cc1S(=O)(=O)N1CCN2C[C@H](Oc3cnc(C4CC4)cn3)C[C@H]2C1 [Example 71, (7R,8aS)-2-[(5-tert-butyl-2-methoxyphenyl)sulfonyl]-7-[(5-cyclopropylpyrazin-2-yl)oxy]octahydropyrrolo[1,2-a]pyrazine] | 2.35
Cc1ccc(S(=O)(=O)N2CCN3C[C@H](Oc4cnc(C5CC5)cn4)C[C@H]3C2)s1 [Example 72, (7R,8aS)-7-[(5-cyclopropylpyrazin-2-yl)oxy]-2-[(5-methyl-2-thienyl)-sulfonyl]octahydropyrrolo[1,2-a]pyrazine] | 3.76
O=S(=O)(c1cncc(Br)c1)N1CCN2C[C@H](Oc3cnc(C4CC4)cn3)C[C@H]2C1 [Example 73, (7R,8aS)-2-[(5-bromopyridin-3-yl)sulfonyl]-7-[(5-cyclopropylpyrazin-2-yl)-oxy]octahydropyrrolo[1,2-a]pyrazine] | 4.68
O=S(=O)(c1cncc(C2CC2)c1)N1CCN2C[C@H](Oc3cnc(C4CC4)cn3)C[C@H]2C1 [Example 74, (7R,8aS)-7-[(5-cyclopropylpyrazin-2-yl)oxy]-2-[(5-cyclopropylpyridin-3-yl)sulfonyl]octahydropyrrolo[1,2-a]pyrazine] | 4.53
O=S(=O)(c1ccc(Cl)nc1)N1CCN2C[C@H](Oc3cnc(C4CC4)cn3)C[C@H]2C1 [Example 75, (7R,8aS)-2-[(6-chloropyridin-3-yl)sulfonyl]-7-[(5-cyclopropylpyrazin-2-yl)-oxy]octahydropyrrolo[1,2-a]pyrazine] | 19.4
Cc1nc2ccc(O[C@H]3C[C@H]4CN(S(=O)(=O)c5cccc(C(F)(F)F)c5)CCN4C3)cc2o1 [Example 78, 2-methyl-6-{[(7S,8aS)-2-{[3-(trifluoromethyl)phenyl]sulfonyl}octahydropyrrolo[1,2-a]pyrazin-7-yl]oxy}-1,3-benzoxazole] | 1.31
Cc1cc(O[C@H]2C[C@H]3CN(S(=O)(=O)c4cccc(C(F)(F)F)c4)CCN3C2)ccc1F [Example 79, (7S,8aS)-7-(4-fluoro-3-methylphenoxy)-2-{[3-(trifluoromethyl)phenyl]-sulfonyl}octahydropyrrolo[1,2-a]pyrazine] | 1.12
Cc1cnc(O[C@@H]2C[C@H]3CN(S(=O)(=O)c4cccc(C(F)(F)F)c4)CCN3C2)cn1 [Example 80, (7R,8aS)-7-[(5-methylpyrazin-2-yl)oxy]-2-{[3-(trifluoromethyl)phenyl]-sulfonyl}octahydropyrrolo[1,2-a]pyrazine] | 2.99
Cc1cncc(O[C@@H]2C[C@H]3CN(S(=O)(=O)c4cccc(C(F)(F)F)c4)CCN3C2)n1 [Example 81, (7R,8aS)-7-[(6-methylpyrazin-2-yl)oxy]-2-{[3-(trifluoromethyl)phenyl]-sulfonyl}octahydropyrrolo[1,2-a]pyrazine] | 3.18
O=S(=O)(c1cccc(C(F)(F)F)c1)N1CCN2C[C@H](Oc3ccc(C(F)(F)F)cn3)C[C@H]2C1 [Example 83, (7R,8aS)-2-{[3-(trifluoromethyl)phenyl]sulfonyl}-7-{[5-(trifluoromethyl)-pyridin-2-yl]oxy}octahydropyrrolo[1,2-a]pyrazine] | 1.22
N#Cc1ccc(O[C@@H]2C[C@H]3CN(S(=O)(=O)c4cccc(C(F)(F)F)c4)CCN3C2)cn1 [Example 86, 5-{[(7R,8aS)-2-{[3-(trifluoromethyl)phenyl]sulfonyl}octahydropyrrolo[1,2-a]pyrazin-7-yl]oxy}pyridine-2-carbonitrile] | 2.95
O=S(=O)(c1cccc(C(F)(F)F)c1)N1CCN2C[C@H](Oc3ccc(Br)nc3)C[C@H]2C1 [Example 87, (7R,8aS)-7-[(6-bromopyridin-3-yl)oxy]-2-{[3-(trifluoromethyl)phenyl]-sulfonyl}octahydropyaolo[1,2-a]pyrazine] | 1.12
O=S(=O)(c1cccc(C(F)(F)F)c1)N1CCN2C[C@H](Oc3ccc(C4CC4)nc3)C[C@H]2C1 [Example 88, (7R,8aS)-7-[(6-cyclopropylpyridin-3-yl)oxy]-2-{[3-(trifluoromethyl)phenyl]-sulfonyl}octahydropyrrolo[1,2-a]pyrazine] | 1.1

These reach a lower IC50. Values come first.

IC50 [µM] | SMILES
0.48 | O=S(=O)(c1cccc(N2CCCCC2)n1)N1CCN2C[C@H](Oc3cnc(C4CC4)cn3)C[C@H]2C1 [Example 60, (7R,8aS)-7-[(5-cyclopropylpyrazin-2-yl)oxy]-2-{[6-(piperidin-1-yl)pyridin-2-yl]sulfonyl}octahydropyrrolo[1,2-a]pyrazine]
1.04 | O=S(=O)(c1cccc(N2CCCC2)n1)N1CCN2C[C@H](Oc3cnc(C4CC4)cn3)C[C@H]2C1 [Example 61, (7R,8aS)-7-[(5-cyclopropylpyrazin-2-yl)oxy]-2-{[6-(pyrrolidin-1-yl)pyridin-2-yl]sulfonyl}octahydropyrrolo[1,2-a]pyrazine]
0.81 | N#Cc1cc(C(F)(F)F)cc(S(=O)(=O)N2CCN3C[C@H](Oc4cnc(C5CC5)cn4)C[C@H]3C2)c1 [Example 64, 3-{[(7R,8aS)-7-[(5-cyclopropylpyrazin-2-yl)oxy]hexahydropyrrolo[1,2-a]-pyrazin-2(1H)-yl]sulfonyl}-5-(trifluoromethyl)benzonitrile]
0.46 | O=S(=O)(c1cccc(C(F)(F)F)n1)N1CCN2C[C@H](Oc3cnc(C4CC4)cn3)C[C@H]2C1 [Example 66, (7R,8aS)-7-[(5-cyclopropylpyrazin-2-yl)oxy]-2-{[6-(trifluoromethyl)pyridin-2-yl]sulfonyl}octahydropyrrolo[1,2-a]pyrazine]
0.46 | O=S(=O)(c1cccc(C(F)(F)F)n1)N1CCN2C[C@H](Oc3ccc(C(F)(F)F)nc3)C[C@H]2C1 [Example 69, (7R,8aS)-7-{[6-(trifluoromethyl)pyridin-3-yl]oxy}-2-{[6-(trifluoromethyl)-pyridin-2-yl]sulfonyl}octahydropyrrolo[1,2-a]pyrazine]
0.81 | O=S(=O)(c1cccc(C(F)(F)F)c1)N1CCN2C[C@@H](Oc3ccc4ocnc4c3)C[C@H]2C1 [Example 76, 5-{[(7S,8aS)-2-{[3-(trifluoromethyl)phenyl]sulfonyl}octahydropyrrolo[1,2-a]pyrazin-7-yl]oxy}-1,3-benzoxazole]
0.33 | O=S(=O)(c1cccc(C(F)(F)F)c1)N1CCN2C[C@@H](Oc3ccc(C(F)(F)F)nc3)C[C@H]2C1 [Example 77, (7S,8aS)-2-{[3-(trifluoromethyl)phenyl]sulfonyl}-7-{[6-(trifluoromethyl)-pyridin-3-yl]oxy}octahydropyrrolo[1,2-a]pyrazine]
0.75 | O=S(=O)(c1cccc(C(F)(F)F)c1)N1CCN2C[C@H](Oc3cnc(Cl)c(C(F)(F)F)c3)C[C@H]2C1 [Example 82, (7R,8aS)-7-{[6-chloro-5-(trifluoromethyl)pyridin-3-yl]oxy}-2-{[3-(trifluoromethyl)phenyl]sulfonyl}octahydropyrrolo[1,2-a]pyrazine]
0.4 | O=S(=O)(c1cccc(C(F)(F)F)c1)N1CCN2C[C@H](Oc3ccc(C(F)(F)F)nc3)C[C@H]2C1 [Example 84, (7R,8aS)-2-{[3-(trifluoromethyl)phenyl]sulfonyl}-7-{[6-(trifluoromethyl)-pyridin-3-yl]oxy}octahydropyrrolo[1,2-a]pyrazine]
0.96 | N#Cc1ccc(O[C@@H]2C[C@H]3CN(S(=O)(=O)c4cccc(C(F)(F)F)c4)CCN3C2)nc1 [Example 85, 6-{[(7R,8aS)-2-{[3-(trifluoromethyl)phenyl]sulfonyl}octahydropyrrolo[1,2-a]pyrazin-7-yl]oxy}nicotinonitrile]
